# The other results are listed elsewhere or left out. Shown are side measurements of this screen, not its main read-out; they come without a call. Most of these compounds were active or inconclusive in the main read-out, so they are no random draw.
# Assay: beta-lactam sensitization of Mtb H37Rv, H37Rv (AID 434955);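 note: growth measured after seven days incubation then overnight dye step; 0% = bacteria only wells and 100% = bacteria with antibiotic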
# Conditions: M. tuberculosis H37Rv growth with meropenem, percent inhibition; measured here: primary screen without meropenem; at 25 µM
row,SMILES,inhibition [%]
1,CCCC(=O)N(Cc1cc(=O)[nH]c2ccccc12)c1ccc(C)cc1,6.43
2,COc1ccc(OCc2cc(C(=O)N3CCCCCC3)no2)c(Cl)c1,2.59
3,CCN(CC)C(=O)CSc1nnc2sc3ccccc3n12,-2.75
4,CCOC(=O)c1ccc(NC(=O)C2CC2)cc1,-0.06
5,CC(C)OC(=O)c1sc2nc(-c3ccccc3)ccc2c1N,1.65
6,O=C(Nc1ccnn1C1CCN(C(=O)c2ccc(F)c(Cl)c2)CC1)C1CC1,1.76
7,O=C(N/N=C/c1ccccc1O)C1SCCCS1,13.3
8,CCOc1ccc(N(CC(=O)NCCc2ccc(F)cc2)S(=O)(=O)c2ccccc2)cc1,1.12
9,Cc1ccc(C(=O)COC(=O)C(C)N2C(=O)C3C4CCC(C4)C3C2=O)cc1 (centres undefined),1.13
10,COc1cc(/C=C2\N=C(C)OC2=O)cc(Cl)c1OC(C)=O,8.36
11,COC(=O)c1c(N2C(=O)CCC2=O)sc2c1CCCC2,-9.3
12,CCOC(=O)c1c(C)oc2c1c(CN1CCN(C(=O)OCC)CC1)c(O)c1ccccc12,2.51
13,COc1ccccc1-c1oc2ccccc2c1C#CC(C)(C)O,74.9
14,O=C(CCNC(=O)c1ccc(Br)o1)NCc1ccccc1Cl,-2.23
15,Cc1ccc(C)c(N(CC(=O)NC2CCCC2)S(=O)(=O)c2ccccc2)c1,-3.04
16,Cc1ccc(CNC(=O)COc2ccc(S(=O)(=O)NC(C)C)cc2)cc1,10.8
17,Cc1cccnc1NC(=S)NC(=O)c1cncc(Br)c1,40.6
18,O=C(CN(CCc1ccccc1)Cc1ccccc1)Oc1ccccc1P(=O)(O)O,1.4
19,O=c1oc(-c2cccs2)nc2sc3c(c12)CCCC3,9.65
20,COc1ccc(-c2csc3ncnc(N4CCN(c5cccc(OC)c5)CC4)c23)cc1,-2.01
21,CCOCCCNC(=O)Cn1cc2c(n1)CCCCC2,-4.15
22,Cc1c(OCc2ccc(C(=O)O)cc2)ccc2c(-c3ccccc3)cc(=O)oc12,4.8

row,SMILES,inhibition [%]
1,COc1ccccc1CNC(=O)COC(=O)C1=COCCO1,20.9
2,Cc1cccc(OCC(O)Cn2c(=N)n(CCN3CCCCC3)c3ccccc32)c1 (centres undefined),98.2
3,CCOc1ccc(C(=O)Nc2c3c(nn2-c2cccc(Cl)c2)CS(=O)C3)cc1 (centres undefined),-7.54
4,CCCCCCc1nc(C(N)=O)c2[nH]c(=O)n(-c3ccccc3F)c2n1,3.87
5,CCN(CC)c1ccc(NC(=O)c2cc(Cl)ccc2OC)cc1,21.9
6,COC(=O)c1ccccc1NC(=O)CSCC(=O)Nc1ccc(F)cc1,33.2
7,Cc1ccc(C(C)C)c(OCc2ccc(C(=O)N/N=C/c3ccc(C(=O)O)cc3)cc2)c1,2.09
8,O=C(Nc1ccc(Oc2ccccc2)nc1)C1CCCCN1Cc1ccc(O)cc1 (centres undefined),1.09
9,Cc1ccc(N2CCN(S(=O)(=O)c3ccc(F)cc3)CC2)c(C)c1,2.21
10,CC(C)c1ccc(/C=C(/C#N)c2nnc(NC(=O)c3ccccc3)s2)cc1,-0.98
11,CSc1nc2c(c(=O)[nH]c(=O)n2C)n1C/C=C(\C)Cl,1.07
12,COc1ccc(S(=O)(=O)N2CCCC2C(=O)Nc2ccc(O)cc2)cc1 (centres undefined),-6.05
13,CCN(CCCNC(=O)COc1cc(=O)n(CC)c2ccccc12)Cc1ccccc1,-16.7
14,Cc1ccc(NC(=O)CCS(=O)(=O)c2cccc3nonc23)cc1,13.6
15,Cc1ccc(N(C)S(=O)(=O)c2c(C)[nH]c(C)c2C(=O)N2CCCC2)cc1,3.19
16,CCOC(=O)C1=C(N)OC(C)=C(C#N)C1c1ccco1 (centres undefined),-7.49
17,COc1cc2c(cc1OC)CN(CC(=O)Nc1ccc(C)c(C)c1)CC2,0.13
18,COc1ccc(CNC(=O)c2cnc(C)cn2)c(OC)c1,-2.02
19,O=C(c1ccccc1F)N1CCN(C(=O)C2CC2)CC1,2.5
20,COc1ccc(S(=O)(=O)Nc2cc3[nH]c(=O)oc3cc2C)cc1,-0.66
21,COc1ccc(N2CCN(C(=O)CCCOc3cc(=O)n(C)c4ccccc34)CC2)cc1,-0.49
22,CC1Cn2c(nnc2-c2cccc(Cl)c2)S1 (centres undefined),-7.11

row,SMILES,inhibition [%]
1,Cc1ccc(-n2nc3c(c2NC(=O)C(C)C)CS(=O)(=O)C3)cc1,5.02
2,O=C(COc1ccc2ccccc2c1)Nc1nc2ccccc2[nH]1,24.2
3,Cc1cc(C)nc(NC(=O)Nc2ccccc2C(F)(F)F)n1,1.49
4,CCC1(C)Cc2c(sc3c2c(=O)n(C)c2nnc(SCC(=O)c4ccccc4)n32)CO1 (centres undefined),-2.92
5,Cc1ccccc1C(=O)Nc1ccnn1C1CCN(Cc2ccncc2)CC1,4.05
6,CCC(=O)Nc1cccc(-c2ccc(N3CCC(C)CC3)nn2)c1,-0.02
7,COc1cccc(C2CC(c3cccc(Br)c3)n3ncnc3N2)c1 (centres undefined),2.56
8,CCCC(C)NC(=O)c1ccccc1SC (centres undefined),-4.31
9,CC(C)(C)NCCCOc1ccc(Cl)cc1C(C)(C)C,-11.2
10,Cc1ccc(NS(=O)(=O)c2cc3[nH]c(=O)c(=O)[nH]c3cc2C)c(C)c1,-1.8
11,O=C(CN1C(=O)c2cccnc2Oc2ccc(Cl)cc21)N1CCCCCC1,7.35
12,CCn1cc(C(=O)N[C@@H](C)C(=O)OC)c(=O)c2cc3c(cc21)OCO3,0.2
13,Cc1cc(NC(=O)c2ccc3c(c2)OCCO3)ccc1NC(=O)c1cc2ccccc2o1,22.6
14,Cc1cccc(CCNC(=O)CC2C(=O)NCCN2Cc2ccccc2C)n1 (centres undefined),0.25
15,CCOC(=O)c1ccc(C(=O)NNC(=O)C2CC=CCC2)cc1 (centres undefined),12
16,O=C(Nc1ccc(Br)cc1)c1cccc(N2C(=O)CCC2=O)c1,-7.3
17,CCC(NC(=O)c1cc(COc2c(F)cccc2F)on1)c1ccncc1 (centres undefined),-2.33
18,COC(=O)c1cnn(-c2ccccc2)c1/C=N/NC(=S)Nc1ccc(Cl)cc1,24.4
19,CCOC(=O)CN1CC23C=CC(O2)C(C(=O)NC2CCCC2)C3C1=O (centres undefined),-4.61
20,CCC(C)(C(=O)NC1CCCCC1)N(CC1CCCO1)C(=O)CNC(=O)c1ccccc1 (centres undefined),-1.72
21,CC(C)c1csc(CN2CCC(n3nccc3NC(=O)Cc3ccccc3)CC2)n1,-5.99
22,Cc1ccc(-n2c(SCC(=O)Nc3ccc4c(c3)OCO4)nnc2-c2ccccn2)cc1,9.22

row,SMILES,inhibition [%]
1,O=C(OC(C(=O)NC1CCCC1)c1ccccc1F)c1ccco1 (centres undefined),2.72
2,CCC(C)(C(=O)NC1CCCCC1)N(C(=O)c1ccccn1)c1ccc(C)cc1 (centres undefined),-0.42
3,CC(=O)Nc1ccc(S(=O)(=O)N2CCN=C2SCc2ccc([N+](=O)[O-])cc2)cc1,-2.03
4,COc1cc(CN2CCC(n3nccc3NC(=O)c3ccc4c(c3)OCO4)CC2)ccc1O,-2.64
5,CCCc1cc(=O)[nH]c(SCC(=O)N2CCC(C)CC2)n1,-1.53
6,CC12CCC(=O)N1C(C(=O)Nc1ccccc1N1CCOCC1)CS2 (centres undefined),-0.84
7,Cc1cc(C(=O)Nc2cccc3ncccc23)no1,3.35
8,Cc1cc(CN2CCC(N3CCC(C(=O)NC4CC4)CC3)CC2)cc(C)c1O,-3.01
9,COCCCNC(=O)C1CCN(S(=O)(=O)c2c(C)noc2/C=C\c2ccc(OC)cc2)CC1,-7.52
10,O=C(c1ccc(S(=O)(=O)N2CCCC2)cc1)N1CCN(c2cccc(Cl)c2)CC1,-7.89
11,Clc1ccc(N2CCCCCC2)nn1,2.5
12,Cc1ccc2c(c1)nnn2C1CCN(C(=O)C2CCCCC2)CC1,4.72
13,CN(C)CC(=O)Nc1nc(-c2ccccc2)cs1,33.6
14,CCn1cc(C2=NOC(C(=O)Nc3cc(C)nn3-c3ccccc3)C2)c(C)n1 (centres undefined),0.63
15,COC(=O)CSc1nnc(NC(=O)C2CC(=O)N(c3ccc(F)cc3)C2)s1 (centres undefined),-4.63
16,Cc1ccccc1/C=N\NC(=O)c1csnn1,16.6
17,COc1ccc(NC(=O)/C(C#N)=C/c2ccc(OCCN3CCOCC3)c(OC)c2)c(OC)c1,-2.5
18,CCN(c1cccc(C)c1)S(=O)(=O)c1cccc(C(=O)O)c1,-4.17
19,Cc1ccc(OCC(=O)N/N=C/c2cn(C)c3ccccc23)cc1,8.03
20,Cc1cc(NC(=O)COc2nnc(-c3ccccc3)c3ccccc23)no1,27
21,CC1(C)Cc2c(sc(NC(=O)C(=O)N3CCN(CCO)CC3)c2C(N)=O)CO1,-4.47
22,CCCn1c(=O)c2c(nc3n2CCCN3Cc2ccccc2)n(C)c1=O,-4.2

row,SMILES,inhibition [%]
1,CC1(C)Cc2nc3[nH]c(=S)n(-c4ccccc4)c(=O)c3cc2CO1,2.73
2,N#CCOC(=O)/C=C/c1ccc2c(c1)OCO2,14.8
3,Cc1ccc(/C=C2\SC(=S)N(CCC(=O)Nc3cccnc3)C2=O)cc1,-1.17
4,COc1cc(CN2CCC(n3nccc3NC(=O)c3ccccc3OC)CC2)ccc1F,7.24
5,COc1ccc(N(C(=O)c2cccnc2)S(=O)(=O)c2ccc(F)cc2)cc1,3.58
6,O=C(O)C1CCCN(C(=O)NCc2ccccc2)C1 (centres undefined),2.09
7,N#CCSc1nc2ccccc2c2nc3ccccc3n12,1.57
8,COc1ccc(C(=O)NC(C)c2cnn(-c3ccccn3)c2C)o1 (centres undefined),-1.84
9,CCNC(=S)N/N=C1\C(=O)c2cccc3cccc1c23,28.2
10,O=C1COc2ccc(C(=O)CCl)cc2N1,45
11,C=CCSc1nccc(-c2nn(-c3ccc(C)cc3)ccc2=O)n1,20.7
12,CC(C)C[C@H](NC(=O)c1nc[nH]c1C(=O)N1CCN(C(=O)OC(C)(C)C)CC1)C(=O)OCc1ccccc1,20
13,Cc1cccc(NC(=O)CS(=O)(=O)c2c[nH]c3ccccc23)c1C,3.11
14,COc1ccc(CSc2nnnn2-c2ccc(C(=O)O)cc2)cc1,-1.34
15,CC(C)[C@@H](NC(=O)OC(C)(C)C)C(=O)NCC1CCC(C(=O)N[C@@H](Cc2ccccc2)C(=O)O)CC1 (some centres undefined),2.44
16,Fc1ccc(C2CC(c3ccccc3)Nc3ncnn32)cc1 (centres undefined),-9.98
17,COc1ccc(NC2CCCN(C(=O)CCCn3cncn3)C2)cc1 (centres undefined),1.97
18,Cc1ccc(C(=O)NC(C)c2ccccc2)cc1S(=O)(=O)N1CCOCC1 (centres undefined),-4.65
19,O=C(NCc1ccccn1)C1CCN(S(=O)(=O)N2CCC3(CC2)OCCO3)CC1,3.99
20,O=C1N/C(=C\c2ccc(O)cc2)C(=O)c2ccccc21,44.9
21,CSc1ccccc1OCc1cc(C(=O)N2CCC(Oc3cccnc3)CC2)no1,99.6

# Source: PubChem BioAssay AID434955 (Southern Research Specialized Biocontainment Screening …, 2010)
